# Results as given in PubChem BioAssay AID588855 (National Center for Advancing Translational Sciences (NCATS), 2011).
# “And” between values parts separate entries of the source, which are not always exact repeats. Equal values may be shown once. Screen size: about 410,000 compounds; about 5,000 (1.2%) were called active. The shares of active, inactive and inconclusive entries below differ from those in the screen. The call rests on the fitted dose curve; in most records, active means well fitted inhibition curve with a large enough effect; inconclusive means small, poorly fitted or top-dose-only effect; inactive means no such curve, though single readings can be large or run the other way. A potency beside an inconclusive call is a rough fit, not a confirmed value.
# Assay: qHTS for Inhibitors of TGF-b; further: nearly all actives have a fitted effect of over 65% in size
# Conditions: HepG2 CAGA-GFP TGF-b/SMAD3 reporter, GFP fluorescence, 18 h, TGF-beta stimulated, 500 pg/mL final; series mostly up to 46.1 µM; activity, negative = inhibition: at the top concentration
# Outline: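 GFP signal (ex488/em500-530) from TGF-beta-stimulated HEPG2 CAGA-GFP cells, 500 pg/mL final, 18 h at 37 degrees C in DMEM plus 1% FBS, normalized to unstimulated and DMSO-stimulated controls.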
# On the % scale 0 is the no-effect control and ±100 the full control effect; potency means the concentration at half of the fitted maximal effect; tags describe the fitted curve by direction and shape.
SMILES,Potency,"activity, negative = inhibition"
Cc1ccc(C(=O)N2CCN(c3ccc4c(c3)C3CC4CCN3C(=O)OCc3ccccc3)CC2)cc1 (stereo not given),"inconclusive: 11.2 µM [inhibitor, partial curve, poor fit]",
O=[N+]([O-])c1ccc(-c2csc(NN=C3CCCC3)n2)cc1,"inconclusive: 11.2 µM [inhibitor, partial curve, poor fit]",
Cc1cc(C)cc(NC(=O)Nc2ccc(N3CCCCC3)cc2)c1,"inconclusive: 15.8 µM [inhibitor, single point]",
COc1ccc2cc(-c3ccsc3)ncc2c1,"inconclusive: 3.98 µM [inhibitor, partial curve, poor fit]",
c1ccc(CN2CCC(N=C3NN=C(c4ccc5c(c4)OCCO5)CS3)CC2)cc1,"inconclusive: 35.5 µM [inhibitor, single point]",
Cn1c(CC(=O)NNC(=O)c2ccc(F)cc2Cl)nc2ccccc21,,inactive: 16.7%
Cc1nn(-c2ccccc2)c(C)c1/C=N/NC(=O)CSc1nc2ccccc2c(=O)n1-c1ccccc1,active: 3.98 µM,
Oc1cc(NCc2ccc(F)cc2)cc2cccnc12,"inconclusive: 22.4 µM [inhibitor, single point]",
CCCN(CCC)S(=O)(=O)c1ccc(C(=O)Nc2cccnc2)cc1,"inconclusive: 17.8 µM [inhibitor, single point]",
COc1cccc(C(=O)Nc2ccc(N3CCN(C(=O)c4cccs4)CC3)cc2)c1,"inconclusive: 10 µM [inhibitor, partial curve, poor fit]",
O=C1/C(=C/c2cccc(Br)c2)SC(=S)N1CCC(=O)N(CCO)c1ccccc1,"inconclusive: 15.8 µM [inhibitor, single point]",
Cc1cc([N+](=O)[O-])cnc1Sc1nccn1C,,inactive: -21.2%
COc1ccc(-c2nnc(C3CCN(S(=O)(=O)c4cccc(Cl)c4)CC3)o2)cc1,"inconclusive: 7.08 µM [inhibitor, partial curve, poor fit]",
Cc1cccc2sc(N(CCCN(C)C)C(=O)CCc3ccccc3)nc12,active: 12.6 µM,
O=C1CC(=C(c2ccccc2)c2ccccc2)C(=O)N1CCN1CCN(c2cccc(Cl)c2)CC1,"inconclusive: 35.5 µM [inhibitor, single point]",
O=c1[nH]c(=O)n(CCCc2ccccc2)cc1-c1ccccc1,,inactive: -10.6%
O=C(NNC(=S)Nc1ccccc1Cl)c1ccncc1,,inactive: 3.44%
COc1ccc(CCN2C(=O)N(c3cccc(C)c3)C(=O)C2CC(=O)Nc2ccccc2)cc1OC (stereo not given),,inactive: -35.3%
Oc1ccc(/C=N/Nc2nc(-c3ccc(Cl)cc3)cc(C(F)(F)F)n2)cc1,"inconclusive: 35.5 µM [inhibitor, single point]",
O=C(COc1ccc2ccccc2c1CN1CCOCC1)N1CCc2ccccc21,"inconclusive: 35.5 µM [inhibitor, single point]",
CCCC(c1nnnn1C(C)(C)CC)N(Cc1ccco1)Cc1cc2ccc(OC)cc2[nH]c1=O (stereo not given),"inconclusive: 35.5 µM [inhibitor, single point]",
Cc1ccc(-c2nc(S(=O)(=O)c3ccc(C)cc3)c(SCC(N)=O)o2)cc1,,inactive: -20.6%

SMILES,Potency,"activity, negative = inhibition"
COCC(=O)Nc1nnc(-c2cccs2)s1,,inactive: 0.383%
Cc1ccc(C(=O)Cn2nnc3ccccc32)cc1[N+](=O)[O-],,inactive: 3.36%
Cc1c2cnn(-c3ccccc3)c(=O)c2c(C)n1C(C)C(=O)Nc1ccccc1C(F)(F)F (stereo not given),"inconclusive: 17.8 µM [inhibitor, partial curve, poor fit]",
COc1ccccc1NC(=O)c1ccc(NS(=O)(=O)c2cccc3cccnc23)cc1,"inconclusive: 28.2 µM [inhibitor, single point]",
COc1ccc(S(=O)(=O)N2Cc3ccccc3CC2C(=O)Nc2ccc(C)cc2)cc1OC (stereo not given),"inconclusive: 4.47 µM [inhibitor, full curve, poor fit]",
CCOc1cc(NC(=O)CCl)c(OCC)cc1NC(=O)CCl,,inactive: 0.78%
O=C(c1ccc(-c2ccccc2Cl)o1)N1CCN(S(=O)(=O)c2cccs2)CC1,"inconclusive: 25.1 µM [inhibitor, single point]",
O=S(=O)(c1ccc(F)cc1)N1CCC(Oc2cccc(C(F)(F)F)c2)CC1,,inactive: -9.98%
CC1Cc2ccccc2N1S(=O)(=O)c1ccc2c(c1)n(C)c(=O)c(=O)n2C (stereo not given),,inactive: -9.42%
CCOCCCNC(=O)C(NC(=O)CNC(=O)c1ccccc1)c1ccc(C)cc1 (stereo not given),"inconclusive: 0.708 µM [inhibitor, full curve, poor fit]",
O=C(CNc1cc(S(=O)(=O)N2CCCC2)ccc1OCC(F)(F)F)Nc1cccc(C(F)(F)F)c1,"inconclusive: 14.1 µM [inhibitor, partial curve, poor fit]",
Cc1ccccc1Cn1cc(CCC(=O)NC(C)c2ccccc2)c2ccccc21 (stereo not given),"inconclusive: 35.5 µM [inhibitor, partial curve, poor fit]",
COC(=O)CC(NC(=O)c1ccc(C)cc1)c1ccccc1 (stereo not given),,inactive: -0.309%
CC(C(c1ccc2c(c1)OCO2)c1c(N)n(C)c(=O)n(C)c1=O)[N+](=O)[O-] (stereo not given),"inconclusive: 12.6 µM [inhibitor, partial curve, poor fit]",
Cc1ccc(Cn2nnc3c(=O)n(CC(=O)N4CCN(c5ccccc5)CC4)cnc32)cc1,"inconclusive: 7.94 µM [inhibitor, partial curve, poor fit]",
CCOC(=O)c1ccc(Nc2nc(C)cc(C)c2C#N)cc1,,inactive: -9.77%
Cc1ccc(S(=O)(=O)N(CC(=O)Nc2ccccc2C(=O)O)c2cccc(Cl)c2C)cc1,"inconclusive: 22.4 µM [inhibitor, single point]",
CC(C)c1ccc(CN2CCN(C(=O)CCl)CC2)cc1,"inconclusive: 35.5 µM [inhibitor, single point]",
CCC(C)c1ccc(OCC(=O)Nc2cccc(-c3nc4ncccc4o3)c2)cc1 (stereo not given),"inconclusive: 35.5 µM [inhibitor, single point]",
COc1ccc(O)c(/C=N/NC(=S)NCCc2ccccc2)c1,"inconclusive: 10 µM [inhibitor, partial curve, poor fit]",
O=C(NNc1c2ccccc2nc2ccccc12)c1ccccc1Cl,,inactive: -15.7%
CCc1nc2ccc(C(=O)N(C)Cc3ccco3)cn2c1N(CC)Cc1cccc(Br)c1,"inconclusive: 35.5 µM [inhibitor, single point]",

SMILES,Potency,"activity, negative = inhibition"
Clc1ccc(CSc2nnc(NC3=NCCCCC3)s2)cc1,"inconclusive: 35.5 µM [inhibitor, partial curve, poor fit]",
COc1cccc(-c2cn3c(n2)sc2cc(C(=O)NC4CCCCCC4)ccc23)c1,"inconclusive: 1.12 µM [inhibitor, full curve, poor fit]",
COc1ccc(Br)cc1CNC(=O)Cn1c(=O)c2cccn2c2ccc(F)cc21,"inconclusive: 15.8 µM [inhibitor, single point]",
COc1ccc(OC)c2nc3c(C(=O)NCCN(C)C)cccc3nc12,"inconclusive: 35.5 µM [inhibitor, single point]",
NC1(C(=O)O)CSSC1,"inconclusive: 5.62 µM [inhibitor, partial curve, poor fit]",
CC1=CC(C)(C)N2C(=O)C3(C(C#N)=C(N)Oc4cc(O)ccc43)c3c(C)c(C)cc1c32 (stereo not given),"inconclusive: 35.5 µM [inhibitor, single point]",
CCc1ccc(NC(=O)c2cc(S(=O)(=O)NC3CCCC3)ccc2F)cc1,"inconclusive: 15.8 µM [inhibitor, partial curve, poor fit]",
N#Cc1cnn(-c2nc3sc4c(c3c(=O)[nH]2)CCCC4)c1N,,inactive: 2.7%
CC(=O)Oc1cc2c(C(=O)NCc3ccncc3)c(C)oc2c2ccccc12,"inconclusive: 0.398 µM [inhibitor, full curve, poor fit]",
CCc1ccc(OCC(=O)NC2CCCCC2)c(Br)c1,"inconclusive: 17.8 µM [inhibitor, partial curve]",
O=C(CN1C(=O)S/C(=C\c2ccccc2F)C1=O)Nc1ccccc1O,"inconclusive: 35.5 µM [inhibitor, single point]",
Cc1ccc(NC(=O)CN2C(=O)CSc3ccc(S(=O)(=O)N4CCCC4)cc32)cc1F,"inconclusive: 35.5 µM [inhibitor, single point]",
O=C(Nc1sc2c(c1C(=O)Nc1ccccc1Cl)CCCC2)c1ccccc1F,,inactive: -2.09%
CCCCn1c(N)c(N(C)C(=O)c2ccc(OCC3CCCO3)cc2)c(=O)[nH]c1=O (stereo not given),"inconclusive: 35.5 µM [inhibitor, partial curve, poor fit]",
COc1ccc(CCNC(=O)CN(c2ccccc2OC)S(=O)(=O)c2ccc(C)cc2)cc1,"inconclusive: 25.1 µM [inhibitor, single point] and inconclusive: 22.4 µM [inhibitor, single point]",
COc1ccc(CNC(=O)COc2ccc(OC)cc2)cc1,,inactive: -4.95%
COc1ccc(OCC(O)Cn2c(=N)n(Cc3ccccc3)c3ccccc32)cc1 (stereo not given),"inconclusive: 35.5 µM [inhibitor, single point]",
O=C(NCc1ccccc1Br)C1CCCN(C(=O)N2CCOc3ccccc32)C1 (stereo not given),"inconclusive: 28.2 µM [inhibitor, single point]",
Cc1[nH]c2c(ccc3ccccc32)c1C1C(CCN)C1(C)C (stereo not given),"inconclusive: 35.5 µM [inhibitor, single point]",
Cc1ccc(NC(=O)CSc2nc(C)c(Cc3ccccc3)c(=O)[nH]2)cc1,"inconclusive: 35.5 µM [inhibitor, single point]",
COc1ccc(OCc2nc3c4cc(OC)c(OC)cc4nc(=S)n3[nH]2)cc1,"inconclusive: 6.31 µM [inhibitor, single point]",
